# Measured values reported in the supplement of paper PMC12632987.
# Over roughly 4,500 sequences, “median log2 fold change of GCK-ALFA target abundance (FLAG IP / Myc IP barcode read proportion)” has its median near 0.078; the lowest 2% begin near -0.6. Some of the results follow.
# B1: GBRAP_52_6225 (protein)
# chain: MAAEARALAQEILRTVRERGVEAAVALLKRIAREHSPELVAAVLAELVRLLEGESAETAEAVLDALIAAEDGLIAAGVDELTVEDAIAAAAAVAVALLKK
# B2: GBRAP_80_6814 (protein)
# chain: MEEEIEKNLKEIEEIDPELAEKVREIVELARELGVPLRYIARFVKAVLELAKLDLEKARELVDRLLERIREAYAAGDREAALAEIVDAESEALLEVEELE
# B3: GBRAP_52_6344 (protein)
# chain: SEEEVRAVAEEIAAAVVAGDLEKAVALTREAAKTFTEEEVARMMRLTAERLVAALPDREDLVWEAAFKLAEVIEEELGNEELADEFLAYLARLLVARRQA
# B4: GBRAP_128_3430 (protein)
# chain: SEEEKVAEAKALIDKALTATVEEVYELTKEFMKVFGTLSKEAQEEVADYFISKLPQLTKEQLLAVADALREQLPTLDPYAQELAADVLVEALNEAEELEE
# B5: GBRAP_160_4650 (protein)
# chain: EERKEKLKERIKELIEEAYEMMKGETHEERIAIARVMGGDIILELDEDEGVSDEAIEEVDKIMDEFVATLEANPDLTDEEIRALLEEMLKKIFEIIDKYT
# B6: GBRAP_80_6832 (protein)
# chain: MEERLEENIKKIEEIDPEIAKLVREIVELARAMGVPLERLARMTEAILELAKLDKEKARKLVEETLKEVREEAAKGDAAAVAATLAEAESDALLEAEELE
# B7: GBRAP_150_3940 (protein)
# chain: DLEELEALFIGIETDAELALDTSNDTLKYVKRALELAKEGIEEADEELKKIAEEIAKKAEEAIKAIEEGAPQEEIDKLLKEIAKLADKGADLVEKKIEEE
# B8: GBRAP_52_6267 (protein)
# chain: MEERAERLAEEFLEVVLTKDEEEVRAFARELVETESEELIAKMLEIVVKKAETLDAESLERLLEAFLILEEELEEAGKDPLPATDAAARLATLLQAKLAA
# B9: GBRAP_11_2931 (protein)
# chain: KKEELEKAAKLAEEIAKQLQKLIESGVVKEEDLKEIKKKLEELKKLVEKYGDEYEKKVAEEAAKALEKAEADPSKALEYLKDAYGYVVELEGLLLLRIEE
# B10: GBRAP_125_2975 (protein)
# chain: SEEEILEDLALVAKRLGLSDDDVEEAVRLAREFSVKGTLYAIMKALGYEEVAELVEKITEEEAKEVLREAAKEIRANPEITPEEAIELIKELLEKAIAKK
# B11: GBRAP_128_3382 (protein)
# chain: VDEEKLKEVEELVEKMIKASVEEVKELTKEFIEFLKTLSKEEQEKAVEILKKKLPELSKEKLDVVADVIREEMPSLDPYLQNLLADLEVEALNLSVEKEE
# B12: GBRAP_125_3012 (protein)
# chain: ALEAAVEALEALGARLGLSPDEVAELGEQARAHGVRQALIALFLAEGWEEAAELAAQLSEEEAAAALAELVARLEAHPDLTPEEVKELALEILERHVAAS
# B13: GBRAP_137_3680 (protein)
# chain: MKVTIEIEREGDVVRITITIEDEETAEETAEKIEDVAVEVGALAISVEKNEDGTWVVEIDVPIEKEEELLEKILEILEDADEVTIIRKEDGKETVEVIKN
# B14: GBRAP_11_2934 (protein)
# chain: KKEKLKKLLKLAKEAAKLLQEILKLGKLDKKLAEKALKLTEEAAKLAKELGLEEILSLLEIAAEILKEILKLGKLDKTKAAAALALAIDVAHEVEELIEK
# B15: GBRAP_78_6718 (protein)
# chain: ELEEVLEKAIEVLNEAAKEALKLPEEKSNEVLDLLVEATNLLMEILEPGVKKEEAIKLLEEAIKLLEEAEKLLGDEDPELRKLVKEAKKLAEEALKIAKE
# B16: GBRAP_160_4643 (protein)
# chain: SESVEDMHEIIEEYSEFALEAIEEGDMENALAAMRMMVGDLVLEADEDPRFSDEDVDELDELGDKFVEELEKNKDKSPEYLKELVEKAKEELKKLVEEHA
# B17: GBRAP_137_3657 (protein)
# chain: MKIKINVKLDGDFAEVTIEADTEELAELAMDIAYEVAKETGVAYAISLDKENKTVTVDLLGTPEKLKAFIEKLVERLSKEADVELTLEENGKVTKKKIKK
# B18: GBRAP_128_3438 (protein)
# chain: SQEELLKKALELLDEIVESDVETAAELAKKLAELIGKLNEEAREKVVEYFEEKAKELTEEKLIAVSDALREMVPKLDPLAANALNEMMVILGERILELEE
# B19: GBRAP_14_3793 (protein)
# chain: MEEIKELLEETIEEIMELIEDLPEEKLEKLRKALKEIAEETLKEIKETGNLEEAMDKMIERSVAATEEILADLPEETRANAVAIVRTELLNTEEEIDEKY
# B20: GBRAP_160_4276 (protein)
# chain: SEELEELIEELKESKEEILELVDEESPEEVRVFAVTDLGSILLEAIELGLVSEEEEEKMAEIIDELEEELEENKDASKEEIKKIITEHYDKFIEILEKSK
# B21: GBRAP_84_6998 (protein)
# chain: SNSERAFRLAKEIFDRVKGRTATLVLAVVLLKLSGKTRTRIVEYAIERDPEAAYDALSLAYEVAANDEEEKLEKEAKAEVAKESPEIVAKYNELLELIKK
# B22: GBRAP_150_3933 (protein)
# chain: DLEELLLLADSVADLLELALNEGIDREKAIKRAQELLEELAKEADPELKKIAEEAQKLLEEAQKLIKEGGPEEEIEKLLKKAQELAEKLAELLEKKIEEE
# B23: GBRAP_11_2918 (protein)
# chain: KKEELKKIAELLEKLIETLKKLKKEGVDDEELLKKALELAKKALELIKKNLDESSKELAKEAVELLKKAKEDKENAEKYVEEALATAQVLLGQVLLEIEE
# B24: GBRAP_128_3416 (protein)
# chain: ADAALVAKAKELLEKMKTADAATAAALADEIAALIAAADLETAEAIAEVIEEELPKLTAEQLDILADALRAALPAASPEKAEILAGVLVDALNEAEEKEE
# B25: GBRAP_128_3256 (protein)
# chain: MNEEVVKYAEETVEKIKNSDKETAQKLADEFMEWLKESSLEDAEQAIEVVKSRLHELSAEKLDILADAARKHRDKFTPEKAELVADLEVEALNEAEEKEE
# B26: GBRAP_26_5464 (protein)
# chain: MEEAFREASDRVDEIAAKLSNPEAAAAVRAEADTILLELEERIEAGEDIEKAVKEAEEEFLKEAREIGKEEGLPEEEIERLEKELSEVFKELEERLKKAK
# B27: GBRAP_14_3767 (protein)
# chain: MEKKKEIVRETAEEIVALLAEIAPEKAAEFRAAVEEVVEETLKRAEETGDWEEAAVEGEDRLVARIGAITADLPAARRAELQAVVRVLFGQAILEIDEEE
# B28: GBRAP_184_5181 (protein)
# chain: MLLERTLRFADVAELEAKLAEIAAEVAGTHADLVLHVEAEKVTVEMAEALMDGVAAIKAAGYARRILVDIDGDVSEEVADVLVEKAREAGVQVALALEEE
# B29: GBRAP_26_5469 (protein)
# chain: IEEGLDKLLEELEKALDELLDPETAAAAKAEVSTIIYEAEEEIEKNKNNYEEIKKILEEMKKEIEEELKTLGVPEDKREKLVKVVEEEIEKILEELEKEK
# Biological target: GABARAP, O95166
# Assay: median log2 fold change of GCK-ALFA target abundance (FLAG IP / Myc IP barcode read proportion) (log2 ratio); each designed protein is fused to an ALFA-tag nanobody in HEK293 cells to bring the named protein to FLAG-tagged glucokinase (GCK); Myc marks an untargeted standard; higher = target protein stabilised (more abundant)
# Settings: target protein: 3xFLAG-MCP-GCK-ALFA reporter; HEK293 landing pad (RPLP)
# Outline: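 The readout is target abundance, the per-binder median log2 ratio of FLAG to Myc barcode read proportions. It came from HEK293 landing-pad cells carrying a recombined ALFA-nanobody-fused binder library, induced with 2 μg mL^−1 doxycycline and transfected with a plasmid for a FLAG-tagged target and a Myc-tagged standard. After 48 h, lysates were immunoprecipitated with anti-FLAG and anti-Myc, and circular RNA barcodes were reverse transcribed, amplified and sequenced. Each barcode needed a proportion of at least 10^−7 in both replicates and each binder at least 3 barcodes per replicate, a pseudocount of 10^−6 was added, and the replicates were pooled.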
# Chain of GABARAP, O95166 (O95166 whole entry, the tested form may be a part): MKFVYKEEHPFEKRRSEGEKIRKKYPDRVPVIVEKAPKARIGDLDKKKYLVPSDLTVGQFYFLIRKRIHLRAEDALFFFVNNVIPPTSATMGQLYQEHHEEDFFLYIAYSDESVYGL
row,Binder,median log2 fold change
1,B1,-0.0741
2,B2,-0.0864
3,B3,0.0417
4,B4,-0.0292
5,B5,-0.715
6,B6,0.354
7,B7,0.0894
8,B8,0.115
9,B9,0.323
10,B10,-0.235
11,B11,0.251
12,B12,0.17
13,B13,-0.123
14,B14,0.203
15,B15,0.294
16,B16,-0.284
17,B17,0.428
18,B18,0.265
19,B19,-0.103
20,B20,-0.247
21,B21,-0.136
22,B22,0.0952
23,B23,0.213
24,B24,0.247
25,B25,0.367
26,B26,0.274
27,B27,-0.172
28,B28,0.0339
29,B29,-0.139
